Assay results taken from PubChem BioAssay AID894 (National Center for Advancing Translational Sciences (NCATS), 2007).
Screen size: about 150,000 compounds; about 6,500 (4.3%) were called active. This list was built around the results that the source calls inconclusive (neither active nor inactive); the mix of calls is not that of the screen. The call rests on the fitted dose curve; in most records, active means well fitted inhibition curve with a large enough effect (not every such curve was filed as active); inconclusive means small, poorly fitted or top-dose-only effect, or another doubt; inactive means no such curve, though single readings can be large or run the other way. Potencies beside an inconclusive call are fits to weak or partial responses and may not hold up.

These molecules were tested against 15-hydroxyprostaglandin dehydrogenase [NAD(+)] (Homo sapiens) (UniProt P15428) (assay: qHTS Assay for Inhibitors of HPGD (15-Hydroxyprostaglandin Dehydrogenase)). Details: purified HPGD, NADH fluorescence kinetic, PGE2 substrate; activity change, negative = inhibition: stronger effect = lower value.
Sequence of UniProt P15428 (P15428 whole entry, looked up): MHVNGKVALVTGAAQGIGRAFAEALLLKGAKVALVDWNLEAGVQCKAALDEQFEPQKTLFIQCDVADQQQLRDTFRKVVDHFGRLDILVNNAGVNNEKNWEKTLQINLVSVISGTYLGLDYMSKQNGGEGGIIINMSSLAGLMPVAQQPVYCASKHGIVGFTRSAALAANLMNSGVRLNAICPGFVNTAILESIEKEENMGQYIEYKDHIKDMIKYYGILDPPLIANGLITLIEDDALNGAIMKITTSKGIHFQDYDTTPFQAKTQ
Method in brief: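 NADH formation kinetics: reaction with 30 uM PGE2 and 1 mM NAD+ (final), 20 nM enzyme, Tris-HCl pH 8 with Tween 20, after 15 min compound preincubation at room temperature. Fluorescence change, last versus first of five reads.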
On the % scale 0 is the no-effect control and ±100 the full control effect; potency means the concentration at half of the fitted maximal effect; tags describe the fitted curve by direction and shape.

Potency, inconclusive:
COc1ccc(/C=C2\SC(=O)N(CC(=O)NNC(=O)c3ccccc3O)C2=O)cc1 39.8 µM [inhibitor, partial curve]
Fc1ccc2nc(Nc3nc4c(F)cccc4s3)sc2c1 28.2 µM [inhibitor, partial curve]
COc1ccc(Sc2ccc(NC(=O)c3ccccc3Cl)cc2C#N)cc1 28.2 µM [inhibitor, partial curve]
CCCCCCCOc1ccc(-c2ccc(C#N)cn2)cc1 25.1 µM [inhibitor, partial curve]
CCn1c(=O)cc(SCC(=O)NCc2ccccn2)c2ccccc21 20 µM [inhibitor, partial curve]
COc1cccc(C2=CC(c3ccccc3)n3ncnc3N2)c1 (stereo unspecified) 14.1 µM [inhibitor, partial curve]
Cn1c(=O)c2c(-c3ccccc3)n(-c3ccccc3O)cc2n(C)c1=O 28.2 µM [inhibitor, partial curve]
Cc1sc(NC(=O)c2ccco2)c(CN2CCN(c3ccccc3)CC2)c1C 28.2 µM [inhibitor, single point]
CC1(C)Cc2c(sc3nc(-c4cc5ccccc5o4)n(N)c(=O)c23)CO1 28.2 µM [inhibitor, single point]
Nc1c(S(=O)(=O)c2ccccc2)c2nc3ccccc3nc2n1Cc1ccco1 25.1 µM [inhibitor, partial curve]
CCOC(=O)c1c(NC(=O)COc2cccc3c2CCN(CC)C3=O)sc2c1CCC2 31.6 µM [inhibitor, partial curve]
Cn1ncc(Cl)c(Oc2ccc(C(C)(C)C)cc2)c1=O 12.6 µM [inhibitor, partial curve]
O=C(O)CCc1nc(-c2ccccc2-n2cccc2)no1 3.55 µM [inhibitor, partial curve, poor fit]
CC1=CC(=C(C#N)C#N)C=C(C)N1CCN1CCN(C(=O)Nc2ccc(Cl)c(Cl)c2)CC1 31.6 µM [inhibitor, partial curve]
CCCCCCC(=O)Nc1c2c(nc3ccccc13)N(C)CC2 31.6 µM [inhibitor, partial curve]
COCCn1nnnc1CN(CCCN1CCOCC1)Cc1cc2c(C)ccc(C)c2[nH]c1=O 28.2 µM [inhibitor, single point]
COc1ccc(/C=N/NC(=S)NC2CCS(=O)(=O)C2)cc1OC (stereo unspecified) 31.6 µM [inhibitor, single point]
O=C1NC2(CCCCC2)C(=O)N1/N=C/c1ccc(O)cc1O 28.2 µM [inhibitor, partial curve]
CCOc1ncccc1C(=O)Nc1ccc2c(C)cc(=O)oc2c1 0.178 µM [inhibitor, full curve, poor fit]
CCc1ccccc1-n1cnc2cc(C(=O)O)ccc21 17.8 µM [inhibitor, partial curve]
Cc1ccc(-n2nc3ccc(NC(=O)c4ccco4)cc3n2)cc1 28.2 µM [inhibitor, single point]
Fc1cccc2sc(Nc3nnc(-c4ccccc4)o3)nc12 22.4 µM [inhibitor, partial curve]
c1cc2c3c(cccc3c1)NC1(CCCCCC1)N2 25.1 µM [inhibitor, partial curve]
CCOc1c2ccc(C(=O)NCc3cc(C(F)(F)F)cc(C(F)(F)F)c3)cc2nn1CCOC 31.6 µM [inhibitor, partial curve]
Cc1ccc(Cn2c(=N)c(C(=O)NCc3ccco3)cc3c(=O)n4ccccc4nc32)cc1 3.98 µM [inhibitor, full curve]
COc1cc(C)ccc1N(CCCN1C(=O)c2cccc3cccc(c23)C1=O)C(=O)c1cccs1 35.5 µM [inhibitor, single point]
COC(=O)Cc1c(C)c2ccc(OCc3nn[nH]n3)c(C)c2oc1=O 25.1 µM [inhibitor, partial curve]
O=C(Nc1cccc(Cl)c1)C1=Cc2cc(Cl)ccc2OC1 35.5 µM [inhibitor, single point]
Cn1cc(Br)c(C(=O)Nc2sc3c(c2C(N)=O)CCC3)n1 28.2 µM [inhibitor, partial curve]
O=C1OCCN1C(=O)[C@H]1[C@H](c2ccc(Cl)cc2)C(c2ccccc2)=NN1c1ccc(Br)cc1 31.6 µM [inhibitor, partial curve]
CN(C)c1ncc2nc(-c3ccc(F)cc3)c(=O)n(C3CC3)c2n1 3.55 µM [inhibitor, partial curve]
Cc1ccc(-c2ncccc2OC(=O)C23CC4CC(CC(C4)C2)C3)cc1 39.8 µM [inhibitor, single point]
O=C(Nc1ccc(O)c(-c2nc3ccccc3s2)c1)c1cc(=O)c2ccccc2o1 35.5 µM [inhibitor, partial curve]
Cc1ccc(NC(=O)C2=C(O)CCn3c2nc2ccccc23)cc1 28.2 µM [inhibitor, partial curve]
CNc1oc(-c2ccc(Cl)cc2)nc1C#N 3.55 µM [inhibitor, partial curve]
CCOc1cc2[nH]c(=O)n(CC3CCC(C(=O)NCCCOC)CC3)c(=O)c2cc1OCC (stereo unspecified) 28.2 µM [inhibitor, partial curve]
Cc1ccccc1OCC(=O)Nc1sc(C(=O)Nc2cccc(C)c2C)c(C)c1C#N 20 µM [inhibitor, partial curve]
CS(=O)(=O)N1CCC[C@@]2(CCN(c3ccccn3)C2)C1 22.4 µM [inhibitor, partial curve]
Cn1c2ccccc2c2c(C(=O)O)cn(C3CCCC3)c(=O)c21 31.6 µM [inhibitor, partial curve]
COc1ccccc1-n1c2nc3ccccc3nc2c2c(=O)n(-c3cc(C)cc(C)c3)cnc21 31.6 µM [inhibitor, partial curve]

Potency, active:
CCS(=O)(=O)Nc1ccc(Cc2ccncc2)cc1 1.26 µM
CC1(C)Cc2c(c(=S)nc(-c3ccccc3)n2CCO)CO1 35.5 µM
CC(C)CNS(=O)(=O)c1ccc2c(c1)OCCO2 31.6 µM
O=C(CSc1nc(-c2ccco2)cc(C(F)(F)F)n1)N1CCSCC1 2.51 µM
N#C/C(=C\c1ccc(O)c(O)c1)C(=O)NCCc1ccccc1 25.1 µM
O=C(CCCn1c(=S)[nH]c2ccc(Br)cc2c1=O)NCC1CCCO1 (stereo unspecified) 7.08 µM
Oc1ccc(C2=Nn3c(nnc3-c3ccco3)SC2)cc1O 14.1 µM
CCNc1oc(COc2ccccc2F)nc1C#N 14.1 µM
CCCNC(=O)c1cc(-c2ccc(OC)cc2)n(CCCOC)c1C 8.91 µM
O=C(CSc1nnc(SCc2ccccc2)s1)N/N=C/C=C\c1ccco1 15.8 µM
COc1ccccc1NS(=O)(=O)c1cc(NC(=S)NCCN2CCOCC2)ccc1N1CCOCC1 17.8 µM
Cc1cc(C)c(C#N)c(SCC(=O)c2cccs2)n1 15.8 µM
C=CCNc1ncnc2c1cnn2-c1ccc(C)cc1C 14.1 µM

Activity change, negative = inhibition, inactive:
CCOc1cccc(N2C(=O)CC(N3CCN(c4nc5ccccc5s4)CC3)C2=O)c1 (stereo unspecified) -3.95%
Cc1ccc(N=Cc2c(O)n(-c3ccc4c(c3)OCO4)c(=O)c3ccccc23)cc1 -11.3%
COc1ccc2c(c1)C(=O)/C(=C/C=C/c1ccccc1)CC2 -21.3%
Cc1c2c(nc3nc4ccccc4n13)CC(C)(C)CC2=O -13.2%
COCCn1nnnc1CN1C2CCCC1CC(NC(C)=O)C2 (stereo unspecified) -1.98%
COc1ccc(S(=O)(=O)N2CCCC(C(=O)N3CCCCCC3)C2)cc1 (stereo unspecified) -6.67%
CCN(CC)c1ccc2cc(S(=O)(=O)c3ccc(C)cc3)c(=O)oc2c1 -29.8%
COc1ccc(C(=O)c2ccc(N(C)C)cc2)c2ccccc12 -4.73%
N#Cc1cccc(NC(=O)N2CC[C@@]3(CCCN(C(=O)c4cc(C(F)(F)F)cc(C(F)(F)F)c4)C3)C2)c1 -9.96%
CCn1c(Cc2ccccc2)nnc1SCC(=O)Nc1ccc(OC)cc1 -0.661%
COc1ccc(NC2=NCC(=O)N2c2ccccc2F)c(OC)c1 -4.14%
COc1ccc2cc3c(N)nn(C(=O)Cc4ccc(Cl)cc4)c3nc2c1 -19.9%
CC1CCCC/C1=N\NS(=O)(=O)c1ccc(Br)cc1 (stereo unspecified) 1.04%
COc1ccc(C2NC(=S)NC(C)=C2C(=O)Nc2ccccn2)cc1OC (stereo unspecified) -3.47%
CCOC(=O)c1ccc(NC(=S)Nc2ccccc2)cc1 -12.8%
COc1ccc(/C=N/NC(=O)CCSc2nc3ccccc3s2)cc1 -8.35%
COc1ccc(C2C(C#N)=C(N)N(c3ccccc3C#N)C3=C2C(=O)CCC3)cc1CN1CCCC1 (stereo unspecified) -4.59%
CC(C)CCCC(C)C1CCC2C3C(=O)C=C4CC(O)CC[C@@]4(C)C3CC[C@@]12C (stereo partly specified) -9.55%
